Measurements published in PMC7617826.
Results are given in words; binding and its absence hold for the method and conditions named. Binding seen in cells or lysates may run through a third protein. Some results given as binding are weak or reduced against the parent protein; the word gives no strength. Sequences can lack the tags named with a protein.

The chains behind the UniProt entries cited, without tags or fusion partners.
UniProt Q92572: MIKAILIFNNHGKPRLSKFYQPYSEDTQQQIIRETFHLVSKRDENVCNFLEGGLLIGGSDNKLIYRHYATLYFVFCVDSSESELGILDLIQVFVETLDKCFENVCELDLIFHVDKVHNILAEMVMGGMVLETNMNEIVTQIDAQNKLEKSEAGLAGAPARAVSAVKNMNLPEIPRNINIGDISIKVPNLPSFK
UniProt Q9BTU6: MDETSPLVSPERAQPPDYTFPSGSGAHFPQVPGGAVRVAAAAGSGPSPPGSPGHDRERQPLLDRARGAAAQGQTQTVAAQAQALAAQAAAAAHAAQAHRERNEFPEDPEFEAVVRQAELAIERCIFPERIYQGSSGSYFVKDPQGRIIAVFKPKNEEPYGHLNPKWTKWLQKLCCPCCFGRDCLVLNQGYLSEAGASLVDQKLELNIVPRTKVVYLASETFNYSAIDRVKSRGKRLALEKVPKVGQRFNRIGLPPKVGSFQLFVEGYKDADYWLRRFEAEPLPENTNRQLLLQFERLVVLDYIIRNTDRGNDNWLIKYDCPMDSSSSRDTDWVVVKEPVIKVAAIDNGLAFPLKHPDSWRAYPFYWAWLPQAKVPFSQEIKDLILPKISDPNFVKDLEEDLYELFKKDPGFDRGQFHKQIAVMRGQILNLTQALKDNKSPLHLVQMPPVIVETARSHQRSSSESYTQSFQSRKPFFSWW

B1: OSBPL9 (oxysterol-binding protein-like protein 9) (protein, UniProt Q96SU4 1-736)
chain: MASIMEGPLSKWTNVMKGWQYRWFVLDYNAGLLSYYTSKDKMMRGSRRGCVRLRGAVIGIDDEDDSTFTITVDQKTFHFQARDADEREKWIHALEETILRHTLQLQGLDSGFVPSVQDFDKKLTEADAYLQILIEQLKLFDDKLQNCKEDEQRKKIETLKETTNSMVESIKHCIVLLQIAKDQSNAEKHADGMISTINPVDAIYQPSPLEPVISTMPSQTVLPPEPVQLCKSEQRPSSLPVGPVLATLGHHQTPTPNSTGSGHSPPSSSLTSPSHVNLSPNTVPEFSYSSSEDEFYDADEFHQSGSSPKRLIDSSGSASVLTHSSSGNSLKRPDTTESLNSSLSNGTSDADLFDSHDDRDDDAEAGSVEEHKSVIMHLLSQVRLGMDLTKVVLPTFILERRSLLEMYADFFAHPDLFVSISDQKDPKDRMVQVVKWYLSAFHAGRKGSVAKKPYNPILGEIFQCHWTLPNDTEENTELVSEGPVPWVSKNSVTFVAEQVSHHPPISAFYAECFNKKIQFNAHIWTKSKFLGMSIGVHNIGQGCVSCLDYDEHYILTFPNGYGRSILTVPWVELGGECNINCSKTGYSANIIFHTKPFYGGKKHRITAEIFSPNDKKSFCSIEGEWNGVMYAKYATGENTVFVDTKKLPIIKKKVRKLEDQNEYESRSLWKDVTFNLKIRDIDAATEAKHRLEERQRAEARERKEKEIQWETRLFHEDGECWVYDEPLLKRLGAAKH

Experiments:
Assay in all cases: co-IP; GFP-trap from lysates (TNTE buffer: 20 mM Tris pH 7.4, 150 mM NaCl, 1% Triton X-100, 5 mM EDTA; 2 h at 4 °C) of CrARFIP2KO cells stably expressing EGFP, EGFP-ARFIP2, EGFP-AH-BAR (BAR) or EGFP-ARFIP chimera; western blot
[1] = biological target: T1, EGFP-ARFIP chimera (N-terminal portion of ARFIP2 (1–92) fused with the BAR domain of ARFIP1 (93–341)) (UniProt P53365)
T1 sequence: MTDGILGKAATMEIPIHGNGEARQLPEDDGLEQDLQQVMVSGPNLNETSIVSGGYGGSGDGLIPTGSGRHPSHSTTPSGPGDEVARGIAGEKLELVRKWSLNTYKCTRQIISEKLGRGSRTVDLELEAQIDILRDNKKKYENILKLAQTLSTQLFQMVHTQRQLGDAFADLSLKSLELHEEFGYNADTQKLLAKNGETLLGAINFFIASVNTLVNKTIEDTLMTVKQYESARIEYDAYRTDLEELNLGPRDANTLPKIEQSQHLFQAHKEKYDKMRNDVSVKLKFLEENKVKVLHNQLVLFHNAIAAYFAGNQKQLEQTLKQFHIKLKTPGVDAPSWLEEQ

[2] = biological target: T2, EGFP-ARFIP2 (ADP ribosylation factor interacting protein 2), full-length wild type (UniProt P53365)
T2 sequence: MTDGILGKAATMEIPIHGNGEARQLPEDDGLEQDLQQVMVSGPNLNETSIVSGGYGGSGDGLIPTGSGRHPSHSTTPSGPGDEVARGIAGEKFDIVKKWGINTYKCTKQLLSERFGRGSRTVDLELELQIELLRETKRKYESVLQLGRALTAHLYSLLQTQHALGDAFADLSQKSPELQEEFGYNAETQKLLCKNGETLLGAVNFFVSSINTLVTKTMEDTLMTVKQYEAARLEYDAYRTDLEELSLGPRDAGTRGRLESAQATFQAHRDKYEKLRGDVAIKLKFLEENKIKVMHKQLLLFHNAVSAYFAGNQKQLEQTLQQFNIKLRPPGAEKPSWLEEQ

[3] = biological target: T3, EGFP-ARFIP2 BAR domain (109–341) (UniProt P53365)
T3 sequence: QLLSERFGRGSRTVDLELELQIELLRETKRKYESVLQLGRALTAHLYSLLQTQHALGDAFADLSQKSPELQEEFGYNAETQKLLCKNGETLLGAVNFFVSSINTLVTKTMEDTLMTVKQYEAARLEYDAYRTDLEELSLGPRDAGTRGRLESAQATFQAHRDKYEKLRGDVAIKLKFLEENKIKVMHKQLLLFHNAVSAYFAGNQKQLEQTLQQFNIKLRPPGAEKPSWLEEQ

Row | Molecule | binding [1] | binding [2] | binding [3]
1 | AP3S1 (AP-3 sigma subunit) (from UniProt Q92572 1-193) | binds | binds | no binding
2 | PI4K2A (phosphatidylinositol 4-kinase-2a) (from UniProt Q9BTU6 1-479) (enzyme) | binds | binds | –
3 | B1 | binds | binds | –
